Assay results published in the RNAGym collection of RNA variant scans (doi:10.7554/elife.90254).
The source gives no read counts; variants with many changes may rest on few reads.

B1: OR4K15 (parent)
chain: GUUAACGGUCAUAGGCCAUGGAAACUAGGAGCACCAUUUCGCUGCCAGUGAAGAAAUGAACAAAGAAAAUCUGGGCCAGGCAGGCAUCAAAAGAAAUAGUCUUGCGCUCAACCAGAAAGUCUGUAAUCAUUUUAAGGGUA

Variants of: B1
Test: self-cleavage, relative activity (ratio to wild type); higher = more cleavage; in vitro, sequencing; the parent is a self-cleaving ribozyme
Variant A22G A69G A114U A116G has a self-cleavage of 0.02. Work on A22G A59G U87A yielded a self-cleavage of 1.77. With A22G U37G A117G the self-cleavage was 1.43. With A22G A60G A129U the self-cleavage was 0.17. Work on A22G U43C U72A U127C yielded a self-cleavage of 0.15. In the case of A22G A95G A129G, the self-cleavage is reported as 2.16. A22G U43C U49C A54G C109A gave a self-cleavage of 0.66. For A22G A66G A78G U87A U124C, the self-cleavage was 0.07. A22G U37C A56G A96G showed a self-cleavage of 1.44. Variant A22G A98U U108A U127C has a self-cleavage of 0. For A22G U49C A59G, the self-cleavage was 1.26. Work on A22G C32U A60U yielded a self-cleavage of 1.92. With A22G A62G A92G A110G the self-cleavage was 0.15. A22G U37C A89G A91G showed a self-cleavage of 1.32. Variant A22G A51U A67G U87A A126G has a self-cleavage of 1.02. With A22G A110U A117G the self-cleavage was 1.5. For A22G U97C U100C U132C, the self-cleavage was 2.57. Work on A22G U39C U70C G79A yielded a self-cleavage of 0.05. In the case of A22G U72C U102C, the self-cleavage is reported as 0.4. A22G A91G A92G U133G gave a self-cleavage of 1.32. Variant A22G G29A U37C A92G U103C A111G A126G has a self-cleavage of 0.04. Variant A22G G44A U97C U124G has a self-cleavage of 0.31. A22G A51G A63G gave a self-cleavage of 1.3. A22G A96U U127C showed a self-cleavage of 1.05. In the case of A22G U37C U108A, the self-cleavage is reported as 0.01. For A22G U87C U108A A114U, the self-cleavage was 0.02. A22G G28U U49C A69U gave a self-cleavage of 1.92. A22G A91G A94G gave a self-cleavage of 1.33. Work on A22G U43C A118G yielded a self-cleavage of 0.59. Work on A22G U132C A134G yielded a self-cleavage of 0.65. With A22G A56G A60C A78U A110U the self-cleavage was 0.16. A22G A98U A140G gave a self-cleavage of 1.88. A22G A67G A78U A110G U130C showed a self-cleavage of 0.02. Variant A22G U57G U87C U131A has a self-cleavage of 1.15. Variant A22G U70A A126U U132A has a self-cleavage of 0.25. With A22G U39C A55G A78C U132C the self-cleavage was 0.22. For A22G A55G A78U, the self-cleavage was 0.19. In the case of A22G U43G A140G, the self-cleavage is reported as 0.58. Variant A22G A90U A114U has a self-cleavage of 0.21. With A22G A117G A140G the self-cleavage was 0.22. Variant A22G A59G A66G U70C G75C A118G has a self-cleavage of 0.11. For A22G A63G A64U, the self-cleavage was 0.73. With A22G U120C U132C A140G the self-cleavage was 1.44. Variant A22G A64G A86U U124C U130C has a self-cleavage of 0.85. With A22G A55G A91G U122C the self-cleavage was 0.88. For A22G G73C G74C A110G, the self-cleavage was 0.01. Variant A22G U37C A67G has a self-cleavage of 0.86. In the case of A22G A62G U100C U102C A118U, the self-cleavage is reported as 0.5. Work on A22G A92G U100C C109U A118G C121U yielded a self-cleavage of 1.24. A22G A95G U100C gave a self-cleavage of 1.34. A22G A90G A94G A111G gave a self-cleavage of 0.07. Work on A22G A56G A82G yielded a self-cleavage of 0.56. Variant A22G A68G A78U A125U has a self-cleavage of 0.17. In the case of A22G A78G A86G A118G, the self-cleavage is reported as 0.12. A22G U26A A62G showed a self-cleavage of 0.93. Work on A22G U87C A90G A111G U120C A126G U127C yielded a self-cleavage of 0.01. With A22G A68G U132C G137U the self-cleavage was 1.96. With A22G A90G A92C the self-cleavage was 0.29. Work on A22G A51G A110G A126G yielded a self-cleavage of 0.07. With A22G U57C U132C the self-cleavage was 0.65. Work on A22G U26C A56G yielded a self-cleavage of 1.11. In the case of A22G G44U U124C U132C, the self-cleavage is reported as 0.66. Work on A22G A82C A117G yielded a self-cleavage of 0.18. Variant A22G U38C A64G U103C U130C has a self-cleavage of 1.23. Variant A22G A62U U103C has a self-cleavage of 0.83. For A22G A111G U122C G138A, the self-cleavage was 0.01. A22G U38C U100C gave a self-cleavage of 1.65. Work on A22G U37C A89G A118G A140G yielded a self-cleavage of 1.28. A22G U72C U87C showed a self-cleavage of 0.23. Work on A22G A62G A68G U103C U130C yielded a self-cleavage of 0.63. For A22G U38C U102C A126G, the self-cleavage was 1.19. A22G A63G A69G A118G showed a self-cleavage of 1.09. In the case of A22G U122C U127A U132C, the self-cleavage is reported as 0.44. Variant A22G A51G U100C has a self-cleavage of 1.81. Work on A22G A66G A90G yielded a self-cleavage of 1.14. With A22G A59G A129C the self-cleavage was 2.23. A22G A59U A96G U133C gave a self-cleavage of 0.45. In the case of A22G G79A A82G A116G, the self-cleavage is reported as 0.09. In the case of A22G U57G A78G A90G, the self-cleavage is reported as 0.26. Variant A22G U39C U133C has a self-cleavage of 2.09. In the case of A22G U39C U70C A94G A111G, the self-cleavage is reported as 0.02. A22G A69U U87C gave a self-cleavage of 0.81. For A22G A59G A78U, the self-cleavage was 0.24. A22G A78C U120C showed a self-cleavage of 0.16. With A22G A62G A94G U100C A118G the self-cleavage was 1.87. With A22G A60G A98G A117G U122A U127C A140G the self-cleavage was 0.19. Work on A22G U37C A64G yielded a self-cleavage of 0.67. For A22G A52G A69G A91G U132C, the self-cleavage was 0.67. Work on A22G A63G U133A yielded a self-cleavage of 1.38. A22G A69G A118G gave a self-cleavage of 0.59. Work on A22G U37C U100C yielded a self-cleavage of 2.43. With A22G A69G U133C the self-cleavage was 2.12. With A22G A51G A60G U72C the self-cleavage was 0.42. A22G A95G A118G G136A showed a self-cleavage of 1.59. A22G U87C A126U showed a self-cleavage of 0.76. For A22G U37C A92G A116G A117U, the self-cleavage was 0.52. A22G C35U C112U A116G gave a self-cleavage of 0. Work on A22G A63G C77U yielded a self-cleavage of 1.85. With A22G C71A U87A A94U the self-cleavage was 1.04. A22G A52G A111C showed a self-cleavage of 0.05. For A22G U49C A62G U70C U130C U139C, the self-cleavage was 0.18. For A22G U37C G79A U132C, the self-cleavage was 0.06. In the case of A22G U37C G74A A114G, the self-cleavage is reported as 0.09. Variant A22G A90G A92G A116G has a self-cleavage of 0.1. With A22G A59G A62G the self-cleavage was 0.4. A22G C42A U132C gave a self-cleavage of 0.32. With A22G U37C A110G the self-cleavage was 0.17. A22G U39C G73A U108C U130C showed a self-cleavage of 0. A22G U49A U122A gave a self-cleavage of 1.48. A22G A69G U70C A86U U132C showed a self-cleavage of 0.18. In the case of A22G A59U A68C, the self-cleavage is reported as 1.24. A22G A64G U122G gave a self-cleavage of 1.08. For A22G A52G A82G, the self-cleavage was 0.47. Work on A22G U72C A96G A116G U132C yielded a self-cleavage of 0.08. In the case of A22G G31C A64U A116C, the self-cleavage is reported as 0.15. Variant A22G A96C U127C has a self-cleavage of 0.65. In the case of A22G C105A A116G U120C, the self-cleavage is reported as 0.06. Variant A22G A55G A91G U108C A110U U132C has a self-cleavage of 0.01. Work on A22G U103C C109U yielded a self-cleavage of 0.1. Work on A22G A55G A111G yielded a self-cleavage of 0.02. A22G A59G A66G gave a self-cleavage of 1.42. In the case of A22G A62U A94G U122C, the self-cleavage is reported as 1.41. Work on A22G U49G A126G yielded a self-cleavage of 0.65. For A22G U49A A90G, the self-cleavage was 1.09. For A22G A55G A96G U124C, the self-cleavage was 1.02. With A22G U37C A64G A91G the self-cleavage was 1.23. With A22G U39C U43C C85U A118G the self-cleavage was 0.65. Variant A22G A64C A94G A95G has a self-cleavage of 1.44. With A22G A94G U102C the self-cleavage was 2.01. Work on A22G A86G A98G yielded a self-cleavage of 0.14. A22G U72C A92G gave a self-cleavage of 0.39. A22G U43A A90G A111G U120C gave a self-cleavage of 0.01. Work on A22G A60G A69G U103C yielded a self-cleavage of 0.24. In the case of A22G A55G A96C, the self-cleavage is reported as 0.56. With A22G A90G A129U U130C the self-cleavage was 0.68. In the case of A22G A52G A62G U102C, the self-cleavage is reported as 1.43. In the case of A22G U49G A111G, the self-cleavage is reported as 0.05. A22G A60G A94G gave a self-cleavage of 1.18. Work on A22G U49C A51G A117G yielded a self-cleavage of 1.23. A22G U38C U122C showed a self-cleavage of 1.46. In the case of A22G A89U A118G, the self-cleavage is reported as 0.82. Variant A22G A68G U70C A91G A94G A118G A125G U130C has a self-cleavage of 0. A22G U43A A86G U132C showed a self-cleavage of 1.42. For A22G G58A G74U, the self-cleavage was 0.29. A22G U57C A62G C81U gave a self-cleavage of 0.28. Work on A22G A78C A110G yielded a self-cleavage of 0.04. With A22G A90G U132C the self-cleavage was 0.85. Variant A22G U100A U122A has a self-cleavage of 0.73. In the case of A22G A86G A95G, the self-cleavage is reported as 0.7. A22G A78C A94G U100C A118G showed a self-cleavage of 0.29. Work on A22G U37C U43C U72C yielded a self-cleavage of 0.51. Work on A22G A54G A114G A135G yielded a self-cleavage of 0.39. With A22G U37C A68G U122C the self-cleavage was 1.78. In the case of A22G G48A A60G, the self-cleavage is reported as 1.06. A22G U37C A118G U131C showed a self-cleavage of 0.42. In the case of A22G U43C U57C, the self-cleavage is reported as 0.76. Variant A22G A89U U127C has a self-cleavage of 1.51. A22G U49C U132C gave a self-cleavage of 1.51. For A22G U26C A110G A117C, the self-cleavage was 0.17. Work on A22G U103G A118G U122C yielded a self-cleavage of 0.02. A22G A94G A98C gave a self-cleavage of 1.71. A22G A60G A62G A78U A110G showed a self-cleavage of 0.11. Variant A22G U124G U127A A129G has a self-cleavage of 0.36. For A22G A51G U139C, the self-cleavage was 1.04. For A22G A52G U97C A118U A126G, the self-cleavage was 0.43. A22G U38C A91G U102G A117U gave a self-cleavage of 0.26. Variant A22G G28U A68G C113U U131C has a self-cleavage of 0.02.
